The record followed here is ChEMBL document CHEMBL4888484, “Replenishing the malaria drug discovery pipeline: Screening and hit evaluation of the MMV Hit Generation Library 1 (HGL1) against asexual blood stage Plasmodium falciparum ,using a nano luciferase reporter read-out” (2022).

Hit rate of the full screen: of about 150,000 compounds, about 540 (0.36%) showed an effect of 50% or more. The list shows a part of the results.

In the assay the test system is Plasmodium falciparum. As to the kind of experiment: Primary screen in NF54 nanoGlo assay, in single point, at 2uM, 72h; a lower Z score goes with more inhibition. As to conditions: timepoint 72 hour. It is filed as functional, Erythrocyte.
Regarding `O=C(CCCc1ccccc1)N1CCC[C@H](c2nnn[nH]2)C1`, the “% Inhibition” value was -5% and the Z score was found to be 0.78.
Taken in the same sequence, the figures for `O=C1CN(C(=O)CN2CCCCc3c(Cl)cccc32)CCN1` were -3% and 0.38.
In the case of `CCn1cnnc1C[C@H]1CCN(C(=O)CCc2ccc(OC)cc2)C1`, the “% Inhibition” value is -13% and the Z score was determined as 2.21.
As for `Cc1cc(C)c2[nH]c(C)c(CC(=O)NCc3cnc(C)cn3)c2c1`, the “% Inhibition” value is on record as 8% and the Z score is given as -0.78.
On to `c1cc2c(cc1-c1ccc(N3CCCC3)nn1)OCCO2`, for which the “% Inhibition” value is -20% and the Z score is on record as 1.93.
On to `O=C(O)c1cn(CCCc2ccccc2)nn1`, for which the “% Inhibition” value is recorded as -18% and the Z score is given as 2.34.
As to `CCCN(C)C(=O)Cc1cccc(N)c1`, the “% Inhibition” value is on record as -16% and the Z score was 2.01.
As for `CN1C(=O)CC[C@H]1C(=O)Nc1nc(C2CC2)c(Cc2ccccc2F)s1`, the “% Inhibition” value is -5% and the Z score was determined as 0.46.
In the case of `CCOC(=O)C(NC(=O)CCc1nc(C)c(-c2ccccc2)o1)C(C)CC` (stereo not given), the “% Inhibition” value is -2% and the Z score was 0.4.
Taken in the same sequence, the figures for `CC[C@@H]1Oc2cc(S(=O)(=O)N(C)CC(=O)N3CCCCCC3)c(C)cc2NC1=O` were -7% and 1.18.
Take `Cn1cnnc1C[C@H]1CCCN(C(=O)NCc2ccc(F)cc2)C1`: the “% Inhibition” value is -20% and the Z score turned out to be 2.6.
In the case of `Cc1ccc(NC(=O)C2CCN(S(=O)(=O)c3c(C)nn(CC(=O)N4CCCC4)c3C)CC2)c(C)c1`, the “% Inhibition” value was -15% and the Z score is on record as 1.39.
`COC[C@@H]1CN(C(=O)COc2ccccc2)C[C@H]1c1nc(C2CC2)no1`: the “% Inhibition” value is reported as -12% and the Z score amounted to 2.18.
On to `Cc1nnc(CN(C)CCc2cnn(C)c2)s1`, for which the “% Inhibition” value is recorded as -12% and the Z score was 1.19.
Regarding `COC[C@@H]1[C@H](C(=O)Nc2ccc3c(c2)OCCO3)CCC(=O)N1C`, the “% Inhibition” value is 8% and the Z score was -1.44.
In the case of `Cc1cc(C(=O)NCc2csc(N)n2)cc(C)n1`, the “% Inhibition” value was -9% and the Z score came out at 0.83.
Taken in the same sequence, the figures for `CCN(Cc1[nH]nc(C)c1Cl)[C@H]1COC[C@@H]1O` were 0% and 0.03.
Take `COc1cccc(N2C[C@@H](NC(=O)c3ccc(S(=O)(=O)N4CCOCC4)cc3)CC2=O)c1`: the “% Inhibition” value was -17% and the Z score was determined as 3.31.
On to `COc1cccc2c1NC(=O)C[C@H]2C(=O)Nc1cnn(C)c1C`, for which the “% Inhibition” value is given as -22% and the Z score was found to be 4.09.
Taken in the same sequence, the figures for `C[C@H]1CN(S(=O)(=O)c2cccc(C(=O)NCCc3cnccn3)c2)CCN1` were 15% and -1.91.
Consider `Cc1ncc(C(=O)N2CC[C@H](C)N(Cc3ccccc3)CC2)c(C)n1`, for which the “% Inhibition” value is given as 4% and the Z score is reported as -0.69.
On to `O=C(COCc1nc2ccccc2[nH]1)NC[C@@H]1COc2ccccc2C1`, for which the “% Inhibition” value is recorded as -3% and the Z score is given as 0.61.
Regarding `CCn1cccc1-c1noc(CNC(=O)c2cc(-c3ccc(F)cc3)nn2C)n1`, the “% Inhibition” value is reported as -15% and the Z score was 1.96.
In the case of `Cc1ccc(-c2nc(N3CCOCC3)ncc2-c2ccc(CC(=O)O)cc2)cc1`, the “% Inhibition” value was -6% and the Z score is reported as 0.82.
Take `CC[C@H]1CCCCN1C(=O)C1=CC(c2cc(OC)ccc2OC)=NS(=O)(=O)N1C`: the “% Inhibition” value is -6% and the Z score was 1.15.
Turning to `CNc1nc2c(c(C(=O)N3CCCC3)n1)CN(Cc1sccc1C)CC2`, the “% Inhibition” value came out at 3% and the Z score was -0.47.
Turning to `c1ccc(-c2n[nH]c([C@@H]3CCCN3c3ncnc4ccsc34)n2)cc1`, the “% Inhibition” value is -15% and the Z score was 2.97.
In the same order, the values of `Cc1cccc(NC(=O)c2cc3ccc4ccc(C)nc4c3[nH]2)c1` are -3% and 0.57.
Taken in the same sequence, the figures for `CC1(C)OB(c2cnsc2)OC1(C)C` were 2% and -0.22.
Taken in the same sequence, the figures for `Cc1ccc([C@@H](C)CCN2CCC(c3ncon3)CC2)o1` were -2% and 0.36.
Take `Cn1ccnc1-c1csc(NC(=O)CCc2ccoc2)n1`: the “% Inhibition” value was -10% and the Z score came out at 1.25.
On to `C[C@]1(NS(=O)(=O)c2c(Cl)cc(F)cc2Cl)CCOC1`, for which the “% Inhibition” value is recorded as -6% and the Z score is 1.09.
Take `Cc1cccc(NC(=O)Cn2cnc3c(c2=O)CCCC3)c1`: the “% Inhibition” value is -1% and the Z score is listed as 0.12.
In the case of `CN1c2ccccc2C(C)(C)[C@@]12CC(c1cccc(S(=O)(=O)N3CCCC3)c1)=NO2`, the “% Inhibition” value was -7% and the Z score was 1.18.
Take `CCC(CC)[C@H](CNC(=O)Nc1ccn(CCOC)n1)N(C)C`: the “% Inhibition” value came to 5% and the Z score is -0.64.
Regarding `C[C@H]1CCc2cc(F)ccc2N1C(=O)c1cc(-c2ccc(Br)cc2)nc2ccccc12`, the “% Inhibition” value is listed as 2% and the Z score was -0.24.
As to `CCCc1cc(NC(=O)[C@@H]2CCCN2C(=O)c2ccccn2)n[nH]1`, the “% Inhibition” value was found to be 5% and the Z score was -0.78.
Consider `CCn1cc(C)c(C(=O)O)c1CC(=O)Nc1ccc(F)c(Cl)c1`, for which the “% Inhibition” value is 5% and the Z score was -0.62.
Turning to `Cc1cc(CNc2cc([C@H]3CCOC3)ncn2)ccc1F`, the “% Inhibition” value is -6% and the Z score is 1.09.
For `CCNC(=O)N(C)CC(=O)N1N=C(c2cccn2C)C[C@H]1c1ccc(C)cc1`, the “% Inhibition” value is 3% and the Z score is -0.41.
Consider `Cc1nc2ccccn2c1CNC(=O)N[C@H](c1cccnc1)C1CC1`, for which the “% Inhibition” value is -17% and the Z score was determined as 2.02.
Taken in the same sequence, the figures for `Cc1occc1C(=O)NC1CC(C)(F)C1` (stereo not given) were -6% and 1.18.
On to `COc1cc(CNCc2cccs2)ccc1OCc1ccccc1C`, for which the “% Inhibition” value was 34% and the Z score is given as -0.5.
With `Cc1cc(NC2c3ccccc3CCCC2C)n2ncnc2n1` (stereo not given), the “% Inhibition” value is given as -10% and the Z score was 0.86.
Taken in the same sequence, the figures for `CCc1ccccc1N1C(=O)CN(S(=O)(=O)c2ccccc2)C[C@@]1(C)C(=O)NC1CCCC1` were -10% and 1.24.
For the compound `Cc1c(C(=O)N2c3ccccc3N(C)CC2(C)C)nnn1C(C)C`, the “% Inhibition” value was -6% and the Z score came out at 0.78.
In the same order, the values of `Cc1cc(=O)n(CC(=O)Nc2cccc(C#N)c2)c(-c2ccncc2)n1` are -15% and 2.86.
For the compound `O=C1N(CCOc2ccc(F)cc2)c2ccccc2NC12CCNCC2`, the “% Inhibition” value came to 3% and the Z score is listed as -0.62.
In the case of `COCCn1c(-c2cnn(-c3ccccc3)c2)nc2ccccc21`, the “% Inhibition” value is on record as -14% and the Z score turned out to be 1.51.
On to `NC(=O)c1ccc(C(F)(F)F)n(Cc2cc3c(cc2Br)OCO3)c1=O`, for which the “% Inhibition” value is listed as -13% and the Z score was found to be 2.08.
In the same order, the values of `Cc1ccc([C@@H]2CCCCCN2C(=O)Nc2cc(Cl)ccc2C)s1` are 6% and -1.15.
In the same order, the values of `C#CCN(Cc1ccco1)[C@H]1CCN(CC(F)(F)F)C1=O` are -8% and 1.07.
On to `CN1CCCN(c2ccc3ccc(F)cc3n2)CC1`, for which the “% Inhibition” value was -5% and the Z score came out at 0.48.
In the case of `CC[C@H]1CN(c2ccncc2F)CCN1C`, the “% Inhibition” value is recorded as -8% and the Z score was 1.72.
Turning to `O=C1CC[C@H](NC(=O)Nc2ccc(F)cc2F)CN1`, the “% Inhibition” value is on record as 2% and the Z score is recorded as -0.42.
For `CN(Cc1nnc2ccccn12)c1ccccn1`, the “% Inhibition” value came out at 8% and the Z score was -1.46.
Consider `O=C1CCC(C(=O)NC(CC(F)(F)F)c2ccc(Cl)cc2)CN1` (stereo not given), for which the “% Inhibition” value was -9% and the Z score is reported as 1.38.
As for `CC(O)C1CCN(C(=O)NCCc2ccc(-c3ccccc3)cc2)C1` (stereo not given), the “% Inhibition” value is on record as -9% and the Z score was 0.97.
With `CN1CC2CN(S(=O)(=O)c3cccc4nsnc34)CC(C1)O2`, the “% Inhibition” value was found to be 31% and the Z score was -3.76.
For `CCOc1ncccc1CNC(=O)c1ccc2nc(-c3ccccc3)cn2c1`, the “% Inhibition” value is given as -1% and the Z score is on record as 0.22.
Taken in the same sequence, the figures for `O=C(Nc1ccc2nn(-c3ccc(Br)cc3)nc2c1)c1ccc2c(c1)OCCO2` were -13% and 1.52.
With `O=C(c1nnn2c1c(=O)[nH]c1cc(F)ccc12)N1CCN(c2ccccc2)CC1`, the “% Inhibition” value worked out at 6% and the Z score is -1.07.
In the case of `Cc1n[nH]c(C)c1[C@@H](N)C(=O)NCCCCc1ccccn1`, the “% Inhibition” value is reported as -5% and the Z score amounted to 0.55.
In the case of `CNC(=O)[C@@H]1CCCCN1Cc1cccn1Cc1cccs1`, the “% Inhibition” value was -12% and the Z score amounted to 1.1.
In the case of `NC(=O)[C@@H]1C[C@@H](F)CN1C(=O)CCc1ncc(-c2ccccc2)o1`, the “% Inhibition” value is -11% and the Z score amounted to 1.44.
As to `Cc1[nH]ncc1CNC(=O)[C@@]12CCCC[C@H]1N(C1CC1)S(=O)(=O)CC2`, the “% Inhibition” value is recorded as 3% and the Z score was -0.58.
For the compound `CC(C)c1ccc(-c2nc(NCCN3CCCCC3)nc3nn(C)c(N)c23)cc1`, the “% Inhibition” value is -2% and the Z score came to 0.36.
As for `O=c1c2cccnc2ncn1[C@H]1CCN(Cc2ccccc2)C1`, the “% Inhibition” value is given as -6% and the Z score was 0.76.
Take `CN1CCCC2(CC1)CCN(c1cnc3ccccc3n1)CC2`: the “% Inhibition” value worked out at 6% and the Z score was -1.27.
With `CN(Cc1ccoc1)[C@@H](C(=O)O)c1ccccc1C(F)(F)F`, the “% Inhibition” value is -5% and the Z score is 0.92.
On to `Cn1nc(C(F)(F)F)c(NC(=O)N2CCCCCCC2)c1Cl`, for which the “% Inhibition” value came out at 13% and the Z score is -1.77.
`O=C1CCCCN1CCC(=O)N1CCO[C@@H](Cc2ccccc2Cl)C1`: the “% Inhibition” value was -2% and the Z score is 0.24.
In the case of `CC[C@H](Nc1nc(C)nc2onc(C)c12)c1cnn(C)c1`, the “% Inhibition” value is on record as 7% and the Z score is reported as -1.31.
With `CC[C@@]1(C)CC(=O)c2cc(NC(=O)NCCc3csc(N)n3)ccc2O1`, the “% Inhibition” value is listed as -21% and the Z score is 2.2.
In the same order, the values of `Cc1ccc(S(=O)(=O)Nc2ccc(N3C(=O)C[C@H](c4ccc(OC(C)C)cc4)C3=O)cc2)cc1` are -4% and 0.5.
As for `O=C(CCC(=O)N1CCn2nccc2C1)c1ccccc1`, the “% Inhibition” value was -23% and the Z score is given as 2.66.
In the case of `NC(=O)Cc1nc(CN2CCCCCC2=O)n(-c2ccc3c(c2)CCC3)n1`, the “% Inhibition” value turned out to be 5% and the Z score is -0.86.
With `Cc1cc(C)cc(OCc2noc(CN(C(C)C)C3CC3)n2)c1`, the “% Inhibition” value is recorded as -7% and the Z score was 0.92.
Turning to `O=C(CCc1cccnc1)Nc1cc(N2CCNC2=O)ccc1Cl`, the “% Inhibition” value was -11% and the Z score came to 2.13.
In the same order, the values of `CCC(NC(=O)NCC1CCC(O)C1)c1c(C)nn(C)c1C` (stereo not given) are -7% and 1.01.
For the compound `CC(=O)N1CCc2[nH]c3ccc(C(=O)NCc4c(C)nn(C)c4C)cc3c2C1`, the “% Inhibition” value is reported as -1% and the Z score stood at 0.15.
Turning to `COc1c(CNC2CCCC(C(F)(F)F)C2)c(C)nn1C` (stereo not given), the “% Inhibition” value is listed as 2% and the Z score was -0.29.
As for `Cn1ncnc1C1(O)CCN(c2ncccc2Br)CC1`, the “% Inhibition” value was -2% and the Z score is 0.33.
Consider `Cc1csc(NC(=O)Cc2c[nH]c3ccccc23)n1`, for which the “% Inhibition” value is listed as -3% and the Z score was 0.26.
In the case of `CCc1nc(C)c(C(=O)N2CCC[C@H](c3nc4ccccc4s3)C2)o1`, the “% Inhibition” value is recorded as -4% and the Z score is recorded as 0.39.

For orientation: % Inhibition means the drop in the measured response relative to a control, in per cent.
